This is one part of the list.
Assays:
[1] = test system: HSkMC (human skeletal muscle cells); assay: cytotoxicity call (relative viability < 0.9); conditions: 10 µM
[2] = test system: HepG2; assay: cytotoxicity call (relative viability < 0.9); conditions: 10 µM
[3] = test system: S. aureus RN4220; assay: growth inhibition call (relative growth <= 0.2); conditions: 50 µM

Cc1cn([C@H]2CC[C@@H](CO)O2)c(=O)[nH]c1=O
inactive: cytotoxicity call [1] | cytotoxicity call [2] | growth inhibition call [3]

COc1ccc(CN(C)C[C@@H]2OCCCC[C@H](C)Oc3ccc(NS(=O)(=O)c4ccc(F)cc4)cc3C(=O)N([C@@H](C)CO)C[C@H]2C)cc1
inactive: cytotoxicity call [1] | cytotoxicity call [2] | growth inhibition call [3]

Cc1cc(N)n2ncnc2n1
inactive: cytotoxicity call [1] | cytotoxicity call [2] | growth inhibition call [3]

COc1ccc(S(=O)(=O)N(C)C[C@H]2OCCCC[C@@H](C)Oc3ccc(NS(C)(=O)=O)cc3C(=O)N([C@H](C)CO)C[C@H]2C)cc1
inactive: cytotoxicity call [1] | cytotoxicity call [2] | growth inhibition call [3]

Cc1noc(C)c1NC(=O)Nc1ccc2c(c1)C(=O)N([C@H](C)CO)C[C@@H](C)[C@H](CN(C)S(=O)(=O)c1ccccc1)OCCCC[C@@H](C)O2
inactive: cytotoxicity call [1] | cytotoxicity call [2] | growth inhibition call [3]

From the antibiotic and cytotoxicity screens of Wong et al. (2023)
